In the supplement of paper PMC3334620:
In all, about 33,000 sequences were measured (“E-score (-0.5 to 0.5)”: median about -0.012, highest 2% from about 0.29 on). The list shows a part of the results.

Each sequence was assayed against T1, Ybr033w (UniProt P38073) (assay: PBM E-score (8-mer binding enrichment) (E-score (-0.5 to 0.5)); higher = stronger / more preferred TF binding; most listed sequences are background and not binding sites). Conditions: protein concentration: 200 nM; construct: GST-full length.
T1 sequence: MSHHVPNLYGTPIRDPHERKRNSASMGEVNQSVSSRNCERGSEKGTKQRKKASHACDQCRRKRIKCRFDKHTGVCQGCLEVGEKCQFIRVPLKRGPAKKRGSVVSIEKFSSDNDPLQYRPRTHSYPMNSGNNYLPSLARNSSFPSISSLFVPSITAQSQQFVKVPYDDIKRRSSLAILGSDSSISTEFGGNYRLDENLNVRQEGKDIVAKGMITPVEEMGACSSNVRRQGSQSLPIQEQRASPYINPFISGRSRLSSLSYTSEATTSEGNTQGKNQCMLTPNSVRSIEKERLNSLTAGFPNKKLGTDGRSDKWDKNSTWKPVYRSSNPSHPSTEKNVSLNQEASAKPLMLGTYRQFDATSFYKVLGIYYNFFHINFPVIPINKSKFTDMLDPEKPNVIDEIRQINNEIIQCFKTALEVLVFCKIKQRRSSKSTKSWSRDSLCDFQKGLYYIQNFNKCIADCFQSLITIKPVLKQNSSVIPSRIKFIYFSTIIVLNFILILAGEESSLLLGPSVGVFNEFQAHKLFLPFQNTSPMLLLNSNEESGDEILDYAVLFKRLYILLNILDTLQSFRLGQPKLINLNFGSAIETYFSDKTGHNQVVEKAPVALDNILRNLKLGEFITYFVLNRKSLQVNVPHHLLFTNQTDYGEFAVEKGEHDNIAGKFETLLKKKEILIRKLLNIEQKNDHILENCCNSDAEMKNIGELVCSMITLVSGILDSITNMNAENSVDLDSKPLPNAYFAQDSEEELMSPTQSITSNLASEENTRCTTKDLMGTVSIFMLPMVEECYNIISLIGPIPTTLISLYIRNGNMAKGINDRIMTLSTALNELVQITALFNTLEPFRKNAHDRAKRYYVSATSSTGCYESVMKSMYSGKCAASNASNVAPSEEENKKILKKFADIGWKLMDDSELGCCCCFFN
Method: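 Universal 'all 10-mer' protein binding microarrays (Agilent AMADID 015681) probed with GST-tagged S. cerevisiae TFs (full-length or DBD) made by in vitro transcription/translation (PURExpress), about 100-200 nM. Bound TF was detected with fluorescent anti-GST. Each ungapped 8-mer (which stands for itself and its reverse complement) is scored by the PBM enrichment score (E-score), a modified Wilcoxon-Mann-Whitney statistic from -0.5 to +0.5, computed with the Universal PBM Analysis Suite. Scale: above 0.35 generally sequence-specific binding.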
With CCATTCAG the “PBM E-score” value was 0.182.
CAGATGCC was tested, and the “PBM E-score” value was -0.0707.
In the case of CGCGGGCC, the “PBM E-score” value is reported as -0.152.
For GACGGGGA, the “PBM E-score” value was -0.219.
For AGCGTACC, the “PBM E-score” value was -0.183.
In the case of GTATGCGA, the “PBM E-score” value is reported as 0.0753.
For TCGCCTCA, the “PBM E-score” value was -0.043.
In the case of CCCGAATC, the “PBM E-score” value is reported as 0.0264.
For GATGTTAA, the “PBM E-score” value was 0.137.
In the case of CTCCGTTA, the “PBM E-score” value is reported as -0.118.
In the case of AATCAATC, the “PBM E-score” value is reported as 0.0849.
With ACAGATAA the “PBM E-score” value was 0.221.
For AAGCGCAG, the “PBM E-score” value was 0.127.
In the case of ACGTGTAA, the “PBM E-score” value is reported as 0.197.
With AGGCGGGG the “PBM E-score” value was -0.213.
With CATTACCA the “PBM E-score” value was -0.00489.
With ATCCTCCC the “PBM E-score” value was -0.183.
For CAAGGACC, the “PBM E-score” value was -0.151.
With ACACTGTA the “PBM E-score” value was 0.0457.
With CCTTACTA the “PBM E-score” value was 0.137.
With TCCCAGAA the “PBM E-score” value was -0.165.
With TCTCTCCA the “PBM E-score” value was -0.201.
For ATATTCGA, the “PBM E-score” value was 0.0581.
With ATTATTTA the “PBM E-score” value was 0.373.
For GGCGCGAC, the “PBM E-score” value was -0.0644.
In the case of AGAAAGTA, the “PBM E-score” value is reported as 0.201.
For AAATGCCA, the “PBM E-score” value was 0.049.
With CCGTGCAC the “PBM E-score” value was -0.0657.
For AAGGCACA, the “PBM E-score” value was -0.0378.
ACGTCAAG was tested, and the “PBM E-score” value was -0.112.
With GGTCATAA the “PBM E-score” value was 0.0991.
In the case of GTGCTCAA, the “PBM E-score” value is reported as 0.00503.
With CATCGAGG the “PBM E-score” value was -0.179.
AGTGCCCC was tested, and the “PBM E-score” value was -0.344.
In the case of CCTCCCCC, the “PBM E-score” value is reported as -0.383.
For CGCCATTC, the “PBM E-score” value was 0.0807.
In the case of ATCATGAT, the “PBM E-score” value is reported as 0.12.
In the case of ACGTGAAA, the “PBM E-score” value is reported as 0.143.
In the case of TAGGGTAA, the “PBM E-score” value is reported as 0.103.
With ACCCACTA the “PBM E-score” value was 0.0196.
With CCGTAGTC the “PBM E-score” value was -0.287.
In the case of GAGGACGC, the “PBM E-score” value is reported as -0.24.
For GAGCTGGC, the “PBM E-score” value was -0.204.
In the case of GAATGAGC, the “PBM E-score” value is reported as 0.0363.
For AAACGACC, the “PBM E-score” value was -0.0824.
In the case of AAACCTCA, the “PBM E-score” value is reported as 0.194.
For ATTGTGGC, the “PBM E-score” value was 0.0651.
ACACAGGA was tested, and the “PBM E-score” value was -0.0183.
GCATGAGC was tested, and the “PBM E-score” value was -0.0968.
For CGTCCAGC, the “PBM E-score” value was -0.129.
In the case of AAAACAGC, the “PBM E-score” value is reported as 0.0729.
In the case of ACGGAGTC, the “PBM E-score” value is reported as 0.0131.
AGTATCCG was tested, and the “PBM E-score” value was 0.182.
In the case of ATATCCGA, the “PBM E-score” value is reported as 0.266.
CACCCCCC was tested, and the “PBM E-score” value was -0.382.
In the case of CCCCGGTA, the “PBM E-score” value is reported as -0.261.
TGTCGCAA was tested, and the “PBM E-score” value was -0.0854.
With AACCCTAG the “PBM E-score” value was -0.0236.
In the case of CACGGACC, the “PBM E-score” value is reported as -0.221.
With GTCCGATA the “PBM E-score” value was -0.104.
With CGCGGAGA the “PBM E-score” value was 0.0986.
For CTGCTACA, the “PBM E-score” value was -0.0445.
AAATGACA was tested, and the “PBM E-score” value was 0.0222.
For ATTCCTGA, the “PBM E-score” value was 0.146.
With TCGACTAA the “PBM E-score” value was 0.0469.
With CCGTGTCA the “PBM E-score” value was -0.161.
For CCCTGGGC, the “PBM E-score” value was -0.324.
For AGGTACTA, the “PBM E-score” value was 0.149.
CAAACTTC was tested, and the “PBM E-score” value was 0.206.
With TCGAGACA the “PBM E-score” value was 0.0181.
CCCCCCCC was tested, and the “PBM E-score” value was -0.45.
With CCGGGGCC the “PBM E-score” value was -0.309.
ACCTATCC was tested, and the “PBM E-score” value was -0.00927.
In the case of AATTAATG, the “PBM E-score” value is reported as 0.273.
For CATGACTA, the “PBM E-score” value was -0.0529.
For AAATTTTC, the “PBM E-score” value was 0.258.
With CCTGTTCA the “PBM E-score” value was -0.0729.
For CACTTAGC, the “PBM E-score” value was -0.15.
For ACTTGTGG, the “PBM E-score” value was -0.00733.
CAAGGAGC was tested, and the “PBM E-score” value was -0.0227.
CCCACAAG was tested, and the “PBM E-score” value was -0.0953.
In the case of AAGGATCG, the “PBM E-score” value is reported as 0.103.
With TACACGTA the “PBM E-score” value was 0.0731.
With CCCTACAC the “PBM E-score” value was 0.0236.
In the case of CGTCATCA, the “PBM E-score” value is reported as -0.0526.
With AATGAGGT the “PBM E-score” value was 0.156.
